Data taken from PubChem BioAssay AID1345083 (National Center for Advancing Translational Sciences (NCATS), 2018).
“And” between values parts separate entries of the source, which are not always exact repeats. Equal entries are not always repeated. In all, about 94,000 compounds went through this assay and about 6,200 (6.6%) were called active. This list was built around the results that the source calls inconclusive (neither active nor inactive); the mix of calls is not that of the screen. Calls come from the whole dose curve; as a rule, active = well fitted inhibition curve with a large enough effect; inconclusive = small, poorly fitted or top-dose-only effect; inactive = flat fitted curve, though single readings scatter. A potency beside an inconclusive call is a rough fit, not a confirmed value.

test: Cytotoxic Profiling in HEK 293 Cell Line of Diverse Libraries Using Quantitative High-Throughput Screening; conditions: HEK 293 viability, ATP luminescence (CellTiter-Glo), 48-72 h; activity change, negative = cytotoxicity: at 115 µM (top of the series) unless noted; series mostly up to 115 µM; note: nearly all actives have a fitted effect of over 60% in size
How it was run: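 ATP-coupled CellTiter-Glo luminescence served as viability read-out, recorded 10 min after reagent addition at room temperature. HEK 293 cells, 250 cells/well, had been incubated with pintool-transferred compound for 48 or 72 hr at 37 degree Celsius.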
% is set by controls: 0 for no effect and ±100 for the full control effect; potency is the fitted concentration of half-maximal effect; tags give direction and shape of the fitted curve.

Compound	Potency	activity change, negative = cytotoxicity	outcome
CCOc1ccc(C(=O)N2CCCN(c3cc(-c4ccc(Cl)cc4)[nH]n3)CC2)cc1	active: 39.8 µM	–	–
CCOC(=O)C1(Cc2ccc(Cl)cc2)CCN(Cc2ccc(OC)cc2O)CC1	inconclusive: 22.4 µM [inhibitor, full curve, poor fit]	–	–
O=C(C1CCCCN1Cc1ccc(-c2cccs2)cc1)N1CCN(c2ncccn2)CC1 (stereo unspecified)	inconclusive: 50.1 µM [inhibitor, partial curve, poor fit]	–	–
COc1ccc(C(=O)N2CCCC(c3noc(COc4ccccc4)n3)C2)cc1OC (stereo unspecified)	inconclusive: 89.1 µM [inhibitor, single point]	–	–
COc1ccccc1CNC(=O)C1CCN(c2cc(C(F)(F)F)ncn2)CC1	inconclusive: 79.4 µM [inhibitor, single point]	–	–
Cc1cc(Cn2cc3c4c(cccc42)[C@H](CC(C)C)N[C@H](C(=O)NCc2ccc(C)o2)C3)no1	active: 31.6 µM	–	–
O=C1OC[C@@H]2CCN(Cc3ccc(C(F)(F)F)cc3)Cc3ccc(F)cc3N12	inconclusive: 44.7 µM [inhibitor, partial curve, poor fit]	–	–
O=C1c2cnc(-c3cc4ccccc4o3)nc2OCCN1Cc1ccccc1	inconclusive: 50.1 µM [inhibitor, partial curve, poor fit]	–	–
COc1ccc(-c2cn3c(n2)CO[C@@H](CNC(=O)C2CCCC2)C3)cc1	–	inactive: -16.5% [at 172 µM]	–
O=C(Cn1ccn2nc3c(c2c1=O)CCCC3)Nc1ccccc1	inconclusive: 89.1 µM [inhibitor, single point]	–	–
Cc1ccc(CNc2ccc3nnc(C4CCC4)n3n2)o1	inconclusive: 89.1 µM [inhibitor, single point]	–	–
O=C(NCc1ccccc1F)C1CCN(c2ccnc3ccnn23)CC1	active: 15.8 µM	–	–
Cc1ccccc1-c1[nH]nc2ncc(-c3cn[nH]c3)nc12	inconclusive: 79.4 µM [inhibitor, full curve]	–	–
Cc1cccc(OCCc2noc(C3CCCCN3C(=O)c3ccccn3)n2)c1 (stereo unspecified)	inconclusive: 50.1 µM [inhibitor, partial curve, poor fit]	–	–
O=C(CN1C(=O)C2(CCCCC2)C1c1ccccc1)NC1CCCC1 (stereo unspecified)	–	inactive: 1.76%	–
COc1ccc(C(=O)Nc2cnc(-c3ccc(Cl)cc3)nc2)cc1	inconclusive: 56.2 µM [inhibitor, partial curve, poor fit]	–	–
O=C(Nc1ccc2c(N3CCCC3)ncnc2c1)c1c(F)cccc1F	inconclusive: 50.1 µM [inhibitor, partial curve, poor fit]	–	–
CCOCC(=O)N1CCC(Nc2cccn3ncnc23)CC1	–	inactive: 2.71%	–
Cn1cccc1-c1noc(C2CCN(C(=O)NC(C)(C)C)CC2)n1	inconclusive: 56.2 µM [inhibitor, partial curve, poor fit]	–	–
Cc1ccccc1C(=O)N1CCCC(C(=O)N2CCC(c3nc4ccncc4[nH]3)C2)C1 (stereo unspecified)	–	inactive: -6.24%	–
CC(C)(C)C(=O)NC1CCN(Cc2cccc(-c3cccs3)c2)CC1	inconclusive: 56.2 µM [inhibitor, partial curve, poor fit] and inconclusive: 50.1 µM [inhibitor, partial curve, poor fit]	–	–
C/C(=C\c1ccccc1)CN1CCCC12Cc1ccccc1CNC2=O (stereo unspecified)	inconclusive: 50.1 µM [inhibitor, partial curve, poor fit]	–	–

Compound	Potency	activity change, negative = cytotoxicity	outcome
Cn1nc(C(=O)N2CCc3nn(CC#N)c(=O)n3CC2)c2ccccc21	–	–	inactive
Cc1ccccc1-c1[nH]nc2ncc(-c3c(C)noc3C)nc12	inconclusive: 50.1 µM [inhibitor, partial curve, poor fit]	–	–
O=C(NC1CCN(c2cc(-c3ccc(Cl)cc3)[nH]n2)CC1)c1ccc2[nH]ccc2c1	active: 39.8 µM	–	–
COc1cc(OC)cc(C(=O)N2[C@@H]3CC[C@H]2CC(NC(=O)c2ccncc2)C3)c1 (stereo partly specified)	–	inactive: -28.7%	–
CC(C)N1C[C@H](O)C[C@H]1c1nnc2n1CCN(C(=O)c1cnccn1)CC2	–	inactive: 0.101%	–
O=C(C[C@@H]1CCNC[C@@H]1Cc1cc(CSc2ccccc2)on1)NC1CCCCC1	active: 89.1 µM	–	–
COc1ccc(-c2nc(C3CC3)nc3c2CCN(CC2CCCCC2)CC3)cc1	inconclusive: 100 µM [inhibitor, single point]	–	–
CCc1nc(C)ccc1OCC(=O)N1CCCn2nc(C(C)O)cc2C1 (stereo unspecified)	–	inactive: -4.7%	–
CC1=C[C@@H](CNC(=O)Cn2cnnn2)[C@H](C(C)C)C[C@H]1Cc1nc2ccccc2n1C	inconclusive: 70.8 µM [inhibitor, full curve, poor fit]	–	–
O=C(C1c2ccccc2C(=O)N(c2ccccc2)C12CCCCC2)N1CCCC1 (stereo unspecified)	inconclusive: 50.1 µM [inhibitor, partial curve, poor fit]	–	–
O=C(NCc1cccc(Cl)c1)C1CCCN1C(=O)c1cccc(-c2ccccn2)c1 (stereo unspecified)	inconclusive: 50.1 µM [inhibitor, partial curve, poor fit]	–	–
CCN1C(=O)CN(C(=O)c2cccnc2)CC12CCOCC2	–	inactive: -8.64%	–
CC(C)CCN1C[C@@H]2C(=O)N(CCCN3CCCC3=O)C(=O)[C@@H]2C1	–	inactive: -3.85%	–
CCc1noc(-c2nc(-c3cccc(F)c3)no2)n1	–	inactive: -6.67%	–
Cc1ccc(CCNC(=O)C2CCN(c3cc(C(F)(F)F)nc(C)n3)CC2)cc1	inconclusive: 22.4 µM [inhibitor, full curve]	–	–
C=CCn1cc(CN2CCOC(Cc3cccc4ccccc34)C2)c(C)n1 (stereo unspecified)	inconclusive: 50.1 µM [inhibitor, partial curve, poor fit]	–	–
CC(C)c1nc2nccc(-c3ccc(F)cc3)n2n1	inconclusive: 56.2 µM [inhibitor, partial curve, poor fit]	–	–
O=C1CCC2(C(=O)N3CCN(c4ccccn4)CC3)CCC=C2N1C1CCCC1 (stereo unspecified)	inconclusive: 89.1 µM [inhibitor, single point]	–	–
CNC(=O)[C@@H]1C[C@H](Oc2ccccc2)CN1C(=O)Cn1nc(C(F)(F)F)cc1C	–	inactive: -1.68%	–
COc1ccc(-c2cc(N3CCC(NC(=O)c4cccc(F)c4)CC3)n[nH]2)cc1	inconclusive: 50.1 µM [inhibitor, partial curve, poor fit]	–	–
CCNC(=O)NC[C@H]1COCc2nc3cc(C(=O)OC)ccc3n21	–	inactive: 0.199% [at 172 µM]	–
O=[S+]1([O-])c2cccnc2OC(COc2ccccc2)CN1C1Cc2ccccc2C1 (stereo unspecified)	inconclusive: 31.6 µM [inhibitor, partial curve, poor fit]	–	–

Compound	Potency	activity change, negative = cytotoxicity	outcome
COCCOCC(=O)N1CCCC(c2nn(C)c(=O)n2-c2ccccc2)C1 (stereo unspecified)	–	inactive: 6.53%	–
CCn1nccc1C(=O)N1CCC(OCCOc2ccc(F)cc2)CC1	inconclusive: 63.1 µM [inhibitor, partial curve, poor fit]	–	–
O=C(Nc1ccc2c(c1)OCO2)C1CN(S(=O)(=O)c2cccnc2)CC12CCCCC2 (stereo unspecified)	–	inactive: -29.8%	–
O=C(c1ccc2c(c1)OCO2)N1CCN2C(=O)N(Cc3ccc(F)cc3)C[C@H]2C1	inconclusive: 89.1 µM [inhibitor, partial curve, poor fit]	–	–
Cc1noc(C)c1CCC(=O)NC1CCc2nnc(C)n2CC1 (stereo unspecified)	–	–	inactive
OC[C@@H]1CNC[C@H]1C1CCN(Cc2ccncc2)CC1	–	–	inactive
Clc1ccc(Nc2ncc(-c3cccnc3)c3c2OCC3)cc1	inconclusive: 79.4 µM [inhibitor, partial curve]	–	–
CCCNC(=O)N1CCC2(CC1)CC2c1noc(C)n1 (stereo unspecified)	–	inactive: -8.09%	–
CC(C)C[C@@H]1N[C@H](C(=O)NCCN2CCOCC2)Cc2cn(Cc3ccccn3)c3cccc1c23	inconclusive: 50.1 µM [inhibitor, partial curve, poor fit]	–	–
COCCNC(=O)CCCN1C(=O)COc2ccc(C(=O)COc3c(C)ccc(C)c3C)cc21	inconclusive: 79.4 µM [inhibitor, partial curve, poor fit]	–	–
O=C(c1cc(F)ccc1F)N1CCCC(n2cc(-c3nc(-c4ccccc4)no3)nn2)C1 (stereo unspecified)	active: 39.8 µM	–	–
O=C(Nc1ccc(F)c(F)c1)N1CCc2c(c3ccccc3n2CC2CC2)C1	active: 12.6 µM	–	–
CCOc1cc(=O)n2c(c1C(=O)NCCCN1CCCCC1)CCCCC2	–	inactive: 9.79%	–
O=C(NC1CCCCC1)[C@H]1O[C@H](CCN2CCNCC2)CC[C@@H]1O	inconclusive: 126 µM [inhibitor, single point]	–	–
CN1C(=O)C(CC(=O)NCc2ccccc2F)Sc2ncccc21 (stereo unspecified)	–	inactive: 25.8%	–
CC(C)CN1C(=O)c2ccccc2C(C(=O)NCc2ccccn2)C12CCCCC2 (stereo unspecified)	inconclusive: 39.8 µM [inhibitor, partial curve, poor fit]	–	–
COC(=O)CNC(=O)C1CCCCN1Cc1ccc(-c2cccs2)cc1 (stereo unspecified)	inconclusive: 56.2 µM [inhibitor, partial curve, poor fit]	–	–
CC(C)(Oc1nn(CCOc2ccccc2)c2ccccc12)C(=O)NCc1ccncc1	inconclusive: 100 µM [inhibitor, partial curve, poor fit]	–	–
CNC(=O)[C@H]1C[C@H](Oc2ccccc2)CN1C(=O)c1cc(-c2ccccc2)n[nH]1	inconclusive: 50.1 µM [inhibitor, partial curve, poor fit]	–	–
Cn1ncc2c(C(=O)NCc3ccc(F)cc3)cc(-c3cccc(C(F)(F)F)c3)nc21	–	inactive: -13.2%	–
CC(C)(C)C1CCC2(CC1)NC(=O)N(CC(=O)Nc1ccc3c(c1)OCCO3)C2=O (stereo unspecified)	inconclusive: 44.7 µM [inhibitor, partial curve, poor fit]	–	–
O=C(CCn1ccn2nc3c(c2c1=O)CCCC3)Nc1ccc2c(c1)OCO2	inconclusive: 79.4 µM [inhibitor, partial curve, poor fit]	–	–
